Hit rate of the full screen: of about 410,000 compounds, about 5,000 (1.2%) were called active. Inconclusive means that the source gave no clear call. Such entries were picked first, then a sample of the others. Calls come from the whole dose curve; as a rule, active = well fitted inhibition curve with a large enough effect; inconclusive = small, poorly fitted or top-dose-only effect; inactive = no such curve, though single readings can be large or run the other way. A potency beside an inconclusive call is a rough fit, not a confirmed value.
experiment: qHTS for Inhibitors of TGF-b; details: HepG2 CAGA-GFP TGF-b/SMAD3 reporter, GFP fluorescence, 18 h, TGF-beta stimulated, 500 pg/mL final; series mostly up to 46.1 µM; note: nearly all actives have a fitted effect of over 65% in size
Summary of the method: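 Smad-responsive CAGA-GFP expression was quantified in HEPG2 cells exposed to compounds and 500 pg/mL final TGF-beta for 18 h at 37 degrees C; unstimulated wells defined full inhibition.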
Potency is the fitted concentration of half-maximal effect; tags give direction and shape of the fitted curve.

Row | SMILES | Potency
1 | COC(=O)CCC(=O)COc1ccccc1C#N | inconclusive: 1.58 µM [inhibitor, partial curve, poor fit]
2 | Cc1ccc(CN(C)C(=O)c2cc(COc3cccc(C(F)(F)F)c3)on2)o1 | inconclusive: 17.8 µM [inhibitor, single point]
3 | CCCOc1ccc(Cn2c(=O)oc3ccc(C)cc32)cc1OC | inconclusive: 2.82 µM [inhibitor, full curve, poor fit]
4 | Cc1ccc(NC(=Nc2ccc(Br)cc2)N2CCOCC2)cc1C | inconclusive: 35.5 µM [inhibitor, single point]
5 | COc1ccc(CC(=O)Nc2ccc(S(=O)(=O)NC(C)C)cc2)cc1 | inactive
6 | CCCC1=Nc2cc(C(=O)NC(C)c3ccccc3)ccc2Sc2ccc(C)cc21 (stereo unspecified) | inconclusive: 3.98 µM [inhibitor, full curve]
7 | CCOC(=O)c1ccccc1OCc1cc(/C=N/n2cncn2)ccc1OC | inconclusive: 35.5 µM [inhibitor, single point]
8 | CC(C)(C)c1ccc(OCC(O)CN(CCO)CC(O)Cn2ccc3ccccc32)cc1 (stereo unspecified) | active: 11.2 µM
9 | Cc1nn(C(=O)c2c(F)cccc2F)c(C)c1S(=O)(=O)N1CCOCC1 | inconclusive: 1.26 µM [inhibitor, full curve, poor fit]
10 | O=C(CCN1N=C(c2ccccc2)CCC1=O)NCCc1ccc(Cl)cc1 | inconclusive: 35.5 µM [inhibitor, single point]
11 | CCOC(=O)/C=C/C(=O)Nc1ccc(Oc2ccccc2)cc1 | inconclusive: 35.5 µM [inhibitor, single point]
12 | CCOC(=O)c1ccc(CNS(=O)(=O)c2c(C)ccc3nsnc23)o1 | inconclusive: 8.91 µM [inhibitor, partial curve, poor fit]
13 | COCCN1C(=O)c2[nH]nc(-c3ccccc3O)c2C1c1ccc(Cl)c(Cl)c1 (stereo unspecified) | inconclusive: 15.8 µM [inhibitor, single point]
14 | CCOC(=O)NNC(=O)c1[nH]c2ccc(Br)cc2c1-c1ccccc1 | inconclusive: 35.5 µM [inhibitor, single point]
15 | COc1ccc(S(=O)(=O)N(C)c2ccc(C(=O)Nc3ccccc3C(=O)N3CCOCC3)cc2)cc1OC | inactive
16 | COc1ccc(-c2nnc(SCC(=O)NCc3ccc(C)cc3)nc2-c2ccc(OC)c(OC)c2)cc1OC | inconclusive: 35.5 µM [inhibitor, single point]
17 | COc1ccc(-c2c(C#Cc3ccsc3)c3cc(-c4ccc(OC)c(F)c4)ccc3n2C)cc1 | inactive
18 | O=C(O)c1ccc(N/N=C/c2ccc(-c3ccccc3Cl)o2)cc1 | inactive
19 | O=C(CSc1nc(-c2ccc(F)cc2)[nH]c1-c1ccccc1)NCC1CCCO1 (stereo unspecified) | inconclusive: 8.91 µM [inhibitor, partial curve]
20 | CCOC(=O)c1ccc(NC(=O)c2cn(-c3ccccc3)nc2-c2ccncc2)cc1 | inconclusive: 28.2 µM [inhibitor, single point]
21 | CCOC(=O)Cn1c(=N)n(CCOc2ccc3ccccc3c2)c2ccccc21 | active: 11.2 µM
22 | COc1cccc(CNC(=O)C23CN(Cc4ccccc4)CC2C(c2ccc([N+](=O)[O-])cc2)=NO3)c1 (stereo unspecified) | inactive

Row | SMILES | Potency
23 | CN(C)CCCN(Cc1ccccc1)C(=S)Nc1ccc(F)c(Cl)c1 | inconclusive: 35.5 µM [inhibitor, single point]
24 | CSc1ccccc1NC(=O)c1cc(-c2cccnc2)nc2ccc(Br)cc12 | inactive
25 | O=C(CNC(=O)C12CC3CC(CC(C3)C1)C2)N1CCN(S(=O)(=O)/C=C/c2ccccc2)CC1 | inconclusive: 6.31 µM [inhibitor, full curve, poor fit]
26 | Cc1cc(C)c(OCCNC(=O)c2ccccc2Sc2ccccc2C#N)c(C)c1 | inactive
27 | CCCc1cc2c(cc1NS(=O)(=O)c1ccc(CCNC(C)=O)cc1)OCO2 | inconclusive: 12.6 µM [inhibitor, single point]
28 | Cc1nc2ccccn2c1-c1ccnn1S(=O)(=O)c1ccc(F)cc1 | inconclusive: 35.5 µM [inhibitor, single point]
29 | CCn1c(=O)c2sccc2n2c(CCCC(=O)N3CCN(c4cc(Cl)ccc4C)CC3)nnc12 | inconclusive: 35.5 µM [inhibitor, single point]
30 | CCn1nc(NC(=O)C(C)C)c2cc3cccc(C)c3nc21 | inconclusive: 35.5 µM [inhibitor, single point]
31 | O=C(c1[nH]c(C(F)(F)F)nc1-c1ccccc1)N1CCN(c2ccccc2)CC1 | inconclusive: 22.4 µM [inhibitor, single point]
32 | COc1ccccc1CCN1C(=S)NC(C)(C)CC1(C)O (stereo unspecified) | inactive
33 | O=C(Nc1nc(-c2cccs2)cs1)c1ccc(S(=O)(=O)N2CCCCC2)cc1 | inconclusive: 10 µM [inhibitor, partial curve, poor fit]
34 | O=C(Cn1ncc2c(=O)oc3ccccc3c21)NC1CC1 | inconclusive: 25.1 µM [inhibitor, single point]
35 | CCOCCCN(C(=O)Cn1nnc(-c2ccc(C)o2)n1)C(C(=O)NC1CCCC1)c1ccco1 (stereo unspecified) | inactive
36 | O=C(c1ccc(COc2c(F)c(F)cc(F)c2F)o1)N1CCN(c2ccc(Cl)cc2)CC1 | inconclusive: 22.4 µM [inhibitor, single point]
37 | O=C(c1cccc(S(=O)(=O)N2CCN(c3ccccc3)CC2)c1)N1CCCCCCC1 | inconclusive: 8.91 µM [inhibitor, partial curve, poor fit]
38 | O=S(=O)(Nc1ccc(Br)cc1)c1cccc(NS(=O)(=O)c2cccs2)c1 | inconclusive: 35.5 µM [inhibitor, single point]
39 | CC1CCc2nc(/C(C#N)=C/c3ccncc3)sc2C1 (stereo unspecified) | inactive
40 | CC(=O)N1c2c(cc(Br)cc2S(=O)(=O)Nc2c(C)n(C)n(-c3ccccc3)c2=O)CC1C (stereo unspecified) | inactive
41 | COc1cccc(NC(=O)CSc2ncnc3c2oc2ccccc23)c1 | inactive
42 | CN(CC(=O)Nc1ccc(Cl)cc1)C(=O)c1cccc(S(=O)(=O)N2CCN(Cc3ccccc3)CC2)c1 | inactive
43 | CC(=O)Oc1ccc(-c2ccc(C(=O)OCC(=O)c3c(N)n(C)c(=O)n(C)c3=O)cc2)cc1 | inconclusive: 35.5 µM [inhibitor, single point]
44 | CC(C)C[C@H](NC(=O)c1nc[nH]c1C(=O)N[C@@H](CC(C)C)C(=O)OC(C)(C)C)C(=O)OCc1ccccc1 | inconclusive: 10 µM [inhibitor, partial curve, poor fit]

Row | SMILES | Potency
45 | O=C1c2ccccc2NC(c2cccc(F)c2)N1Cc1ccco1 (stereo unspecified) | inactive
46 | CC1CCN(C(=O)CSc2nc(-c3ccccc3)no2)CC1 | inconclusive: 15.8 µM [inhibitor, single point]
47 | CCc1nc(N)nc(N)c1-c1ccc(N(C)Cc2ccccc2)c([N+](=O)[O-])c1 | active: 0.708 µM
48 | C=CCOC(=O)C1=C(C)NC(SCC(=O)Nc2nccs2)=C(C#N)C1c1ccc(Cl)cc1 (stereo unspecified) | inconclusive: 20 µM [inhibitor, single point]
49 | CCCc1n[nH]c(=O)c2c1nnn2Cc1ccccc1 | inactive
50 | CCOc1cc(N2CCOCC2)c(OCC)cc1NC(=O)CSc1cccc[n+]1[O-] | inconclusive: 14.1 µM [inhibitor, single point]
51 | Cc1c(NS(=O)(=O)c2ccccc2)cc(C(C)C)c(O)c1S(=O)(=O)c1ccc(Cl)cc1 | inconclusive: 35.5 µM [inhibitor, single point]
52 | O=C(NCCc1c[nH]c2ccccc12)C(=O)Nc1cc2c3c(c1)CC(=O)N3CCC2 | inactive
53 | Cc1ccc(CNC(=O)CCn2nc(-c3ccc(Cl)cc3)ccc2=O)cc1 | inconclusive: 3.98 µM [inhibitor, full curve, poor fit]
54 | Cc1ccccc1C(=O)Nc1nnc(S(=O)(=O)N2c3ccccc3CC2C)s1 (stereo unspecified) | inconclusive: 20 µM [inhibitor, single point]
55 | COc1ccccc1N(C)S(=O)(=O)c1ccc(C(=O)Nc2cc(F)ccc2C)cc1 | inactive
56 | COc1ccccc1C1CCN(Cc2ccc(C)cc2)CC1 | inconclusive: 3.55 µM [inhibitor, single point]
57 | CN(C)c1ccc(N=Nc2ccccc2C(=O)OCC(=O)N2CCCCCC2)cc1 | inconclusive: 7.08 µM [inhibitor, partial curve, poor fit]
58 | COc1ccc(CCNc2ncnc3c2cnn3-c2ccc(C)cc2)cc1 | inconclusive: 35.5 µM [inhibitor, single point]
59 | OC(COc1ccc(Cl)c2ccccc12)CN1CCN(c2ccccn2)CC1 (stereo unspecified) | inconclusive: 25.1 µM [inhibitor, single point]
60 | Fc1ccc(CN2CCc3nc(Nc4ccccc4)ncc3C2)cc1F | inconclusive: 35.5 µM [inhibitor, single point]
61 | CC(C)Cn1c(N)c(C(=O)COC(=O)c2cc(-c3ccco3)nc3ccccc23)c(=O)n(C)c1=O | inconclusive: 35.5 µM [inhibitor, single point]
62 | COc1ccc(Cc2c(-c3ccc(C)cc3)nc3cc(C)c(Br)c(C)n23)c(C)c1 | inactive
63 | C[C@@H](NC(=O)c1[nH]cnc1C(=O)Nc1cccc(Cl)c1)c1ccccc1 | inconclusive: 35.5 µM [inhibitor, single point]
64 | CC(C)C(=O)N=c1sc2cccc(F)c2n1C | inconclusive: 6.31 µM [inhibitor, partial curve]
65 | CCCN(CCC)CCNC(=O)C1CCCN(S(=O)(=O)c2ccc3c(c2)oc(=O)n3C)C1 (stereo unspecified) | inactive
66 | CCN(CC)C(=O)/C(=C\c1ccc2c(c1)OCO2)NC(=O)c1ccc(Br)cc1 | inconclusive: 0.224 µM [inhibitor, full curve, poor fit]

— PubChem BioAssay AID588855 (National Center for Advancing Translational Sciences (NCATS), 2011)
